Reference: the supplement of paper PMC3334620
Whole data set: some 33,000 sequences, median “E-score (-0.5 to 0.5)” near -0.01, cut for the highest 2% near 0.26. The list shows a part of the results.

Target: Ste12 (UniProt P13574)
Experiment: PBM E-score (8-mer binding enrichment) (E-score (-0.5 to 0.5)); higher = stronger / more preferred TF binding; most listed sequences are background and not binding sites
Conditions: protein concentration: 200 nM; construct: GST-DNA-binding domain
Procedure, shortened: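 The E-score, a modified Wilcoxon-Mann-Whitney statistic, was computed by the Universal PBM Analysis Suite for every ungapped eight-base word pooled with its reverse complement. Scans behind it were normalised with masliner after bound GST-tagged yeast transcription factors were detected with fluorescent anti-GST. The proteins, at about 100-200 nM, had been applied to universal all-10-mer Agilent arrays made double-stranded by primer extension.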

Question: How did the “PBM E-score” value turn out when TACGTAGA was run?
Answer: -0.133

Question: For ACAGCTCA, which “PBM E-score” value is on record?
Answer: -0.102

Question: Which “PBM E-score” value does the source give for GGATATAC here?
Answer: 0.0903

Question: For TATAAGGA, which “PBM E-score” value is on record?
Answer: 0.124

Question: TAAGTAGA was tested. Which “PBM E-score” value did it give?
Answer: 0.0759

Question: CACCTAAG was tested. Which “PBM E-score” value did it give?
Answer: -0.0332

Question: How did the “PBM E-score” value turn out when ATAAAAAC was run?
Answer: 0.134

Question: For CACCAGGC, which “PBM E-score” value is on record?
Answer: -0.154

Question: With GATAGACC as the sequence, how does the “PBM E-score” value read?
Answer: -0.144

Question: For CAGTCTCC, which “PBM E-score” value is on record?
Answer: -0.15

Question: For CAGTTTGC, which “PBM E-score” value is on record?
Answer: 0.0928

Question: With CATAAAGG as the sequence, how does the “PBM E-score” value read?
Answer: -0.0477

Question: With CCTCCTAA as the sequence, how does the “PBM E-score” value read?
Answer: -0.058

Question: How did the “PBM E-score” value turn out when ATTGAGCC was run?
Answer: 0.0949

Question: CCGGCAGG was tested. Which “PBM E-score” value did it give?
Answer: -0.0782

Question: Which “PBM E-score” value does the source give for CCTTTGAG here?
Answer: -0.119

Question: For CTCATATC, which “PBM E-score” value is on record?
Answer: -0.13

Question: Which “PBM E-score” value does the source give for TATGGTCA here?
Answer: -0.0454

Question: For CCGGTGCA, which “PBM E-score” value is on record?
Answer: 0.0711

Question: With AGCTGTAA as the sequence, how does the “PBM E-score” value read?
Answer: -0.023

Question: GACTACGA was tested. Which “PBM E-score” value did it give?
Answer: -0.163

Question: GAAGCCCA was tested. Which “PBM E-score” value did it give?
Answer: -0.179

Question: For GATGTACC, which “PBM E-score” value is on record?
Answer: -0.115

Question: With AACCGGGC as the sequence, how does the “PBM E-score” value read?
Answer: -0.0147

Question: How did the “PBM E-score” value turn out when ATGATGCC was run?
Answer: 0.0128

Question: For ATTCACGC, which “PBM E-score” value is on record?
Answer: -0.0199

Question: For AGTTATGG, which “PBM E-score” value is on record?
Answer: -0.102

Question: With CACCGATA as the sequence, how does the “PBM E-score” value read?
Answer: -0.0326

Question: How did the “PBM E-score” value turn out when ATCTCAGA was run?
Answer: 0.0434

Question: How did the “PBM E-score” value turn out when CCCTTCAG was run?
Answer: -0.154

Question: How did the “PBM E-score” value turn out when CTCGGTTA was run?
Answer: -0.0357

Question: For ACGGAAGG, which “PBM E-score” value is on record?
Answer: -0.117

Question: How did the “PBM E-score” value turn out when CACCTGGA was run?
Answer: 0.00124

Question: With TCTTGTAA as the sequence, how does the “PBM E-score” value read?
Answer: 0.186

Question: ATCCTGGG was tested. Which “PBM E-score” value did it give?
Answer: 0.0052

Question: For CCATTTAG, which “PBM E-score” value is on record?
Answer: -0.0197

Question: AACATAAC was tested. Which “PBM E-score” value did it give?
Answer: 0.0575

Question: With CCGATTAG as the sequence, how does the “PBM E-score” value read?
Answer: 0.1

Question: Which “PBM E-score” value does the source give for CCATTTCG here?
Answer: -0.219

Question: For GACTCGGA, which “PBM E-score” value is on record?
Answer: -0.0923

Question: GGGCGCCA was tested. Which “PBM E-score” value did it give?
Answer: 0.0281

Question: CCACCCTA was tested. Which “PBM E-score” value did it give?
Answer: 0.107

Question: For CTGTCCAA, which “PBM E-score” value is on record?
Answer: -0.0723

Question: For GGTCTGAC, which “PBM E-score” value is on record?
Answer: -0.127

Question: How did the “PBM E-score” value turn out when CTTACTTC was run?
Answer: 0.0889

Question: CGAAAGTA was tested. Which “PBM E-score” value did it give?
Answer: 0.0432

Question: Which “PBM E-score” value does the source give for GATGCTCC here?
Answer: -0.125

Question: With GCAGCTGC as the sequence, how does the “PBM E-score” value read?
Answer: 0.00859

Question: For TCGGCGCA, which “PBM E-score” value is on record?
Answer: 0.06

Question: How did the “PBM E-score” value turn out when AAAAACCC was run?
Answer: 0.0736

Question: For CTAGTGTA, which “PBM E-score” value is on record?
Answer: 0.129

Question: CCTACGAG was tested. Which “PBM E-score” value did it give?
Answer: -0.0858

Question: How did the “PBM E-score” value turn out when CCTAGAGA was run?
Answer: -0.154

Question: For GCGTGCCC, which “PBM E-score” value is on record?
Answer: -0.132

Question: How did the “PBM E-score” value turn out when GAAAGGTA was run?
Answer: -0.032

Question: How did the “PBM E-score” value turn out when AGATGCTG was run?
Answer: -0.0848

Question: With CTCCGGGC as the sequence, how does the “PBM E-score” value read?
Answer: -0.00144

Question: Which “PBM E-score” value does the source give for CCCCGAGC here?
Answer: 0.0007

Question: With TCAAGCCA as the sequence, how does the “PBM E-score” value read?
Answer: -0.0863

Question: Which “PBM E-score” value does the source give for CTATCAAA here?
Answer: 0.186

Question: With AGCCCTCA as the sequence, how does the “PBM E-score” value read?
Answer: -0.112

Question: GCCCGTAC was tested. Which “PBM E-score” value did it give?
Answer: -0.132

Question: How did the “PBM E-score” value turn out when CCACAAAC was run?
Answer: 0.122

Question: With CGTTCCAA as the sequence, how does the “PBM E-score” value read?
Answer: 0.0893

Question: How did the “PBM E-score” value turn out when TAAGAAAA was run?
Answer: 0.235

Question: For GTTGAACA, which “PBM E-score” value is on record?
Answer: -0.269

Question: Which “PBM E-score” value does the source give for GGTCCCCA here?
Answer: -0.21

Question: CTCAAAAA was tested. Which “PBM E-score” value did it give?
Answer: 0.178

Question: How did the “PBM E-score” value turn out when AAACTAGG was run?
Answer: 0.0381

Question: With CAGATGCG as the sequence, how does the “PBM E-score” value read?
Answer: -0.175

Question: For TTCGGCAA, which “PBM E-score” value is on record?
Answer: 0.193

Question: With CGCAACGA as the sequence, how does the “PBM E-score” value read?
Answer: -0.0782

Question: How did the “PBM E-score” value turn out when ATTTCAGA was run?
Answer: 0.00371

Question: For AACTTCGG, which “PBM E-score” value is on record?
Answer: 0.199

Question: How did the “PBM E-score” value turn out when GTTTCATA was run?
Answer: 0.481

Question: How did the “PBM E-score” value turn out when CTCTGTCA was run?
Answer: -0.0992

Question: With ATTCAGAC as the sequence, how does the “PBM E-score” value read?
Answer: 0.109

Question: For CCTAGTGA, which “PBM E-score” value is on record?
Answer: -0.239

Question: For CTAAAGGC, which “PBM E-score” value is on record?
Answer: -0.145

Question: How did the “PBM E-score” value turn out when CGTTTTTA was run?
Answer: 0.165

Question: Which “PBM E-score” value does the source give for GGGCATAC here?
Answer: -0.181

Question: For ACCGGGTC, which “PBM E-score” value is on record?
Answer: 0.0358

Question: CTACGATC was tested. Which “PBM E-score” value did it give?
Answer: -0.157

Question: Which “PBM E-score” value does the source give for ACATTTAC here?
Answer: 0.114

Question: CGGCGTAG was tested. Which “PBM E-score” value did it give?
Answer: -0.0316

Question: With ACAATTGC as the sequence, how does the “PBM E-score” value read?
Answer: -0.0789
